Our source for the binding values is article PMC10626271.

Results are given in words; binding and its absence hold for the method and conditions named. For part of these data: In cells and extracts the contact can be indirect. Some entries that bind do so weakly or less than the wild type. For part of these data: Where a sequence is shown, tags or fusion partners need not be part of it.

Assay [1] has as its target T1, C-terminal domain of ASPL (ASPL-C, residues 313-553) (human) (UniProt Q9BZE9).
T1 sequence: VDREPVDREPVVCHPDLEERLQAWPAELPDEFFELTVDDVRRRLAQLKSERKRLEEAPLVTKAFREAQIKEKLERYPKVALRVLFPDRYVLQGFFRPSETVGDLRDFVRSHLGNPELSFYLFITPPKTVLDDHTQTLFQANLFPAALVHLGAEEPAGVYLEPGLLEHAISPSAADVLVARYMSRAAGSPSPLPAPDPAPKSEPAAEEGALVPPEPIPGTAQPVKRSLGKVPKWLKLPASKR
Briefly: cross-linking; 5 μg Trx-ICH_(GLUT4) incubated with ASPL-C 15 min at 37 °C, cross-linked with DSS-H12/D12 (0 to 2 mM) 30 min at 37 °C; digestion and LC-MS/MS (MeroX, pLink 2); both purified.

In assay [2] the target is T1, C-terminal domain of ASPL (ASPL-C, residues 313-553) (human). As to the kind of experiment: far-Western, overlay or dot blot; far dot western blot: 100 pmol ASPL-C spotted on nitrocellulose, blocked, exposed to GLUT4 yeast lysate 40 min at room temperature, washed with PBS with 0.1% DM, detected with GLUT4 antibody; only the target purified.
Assay [3] addresses T2, GST-tagged human full-length ASPL with C-terminal His tag (human) (UniProt Q9BZE9).
T2 sequence: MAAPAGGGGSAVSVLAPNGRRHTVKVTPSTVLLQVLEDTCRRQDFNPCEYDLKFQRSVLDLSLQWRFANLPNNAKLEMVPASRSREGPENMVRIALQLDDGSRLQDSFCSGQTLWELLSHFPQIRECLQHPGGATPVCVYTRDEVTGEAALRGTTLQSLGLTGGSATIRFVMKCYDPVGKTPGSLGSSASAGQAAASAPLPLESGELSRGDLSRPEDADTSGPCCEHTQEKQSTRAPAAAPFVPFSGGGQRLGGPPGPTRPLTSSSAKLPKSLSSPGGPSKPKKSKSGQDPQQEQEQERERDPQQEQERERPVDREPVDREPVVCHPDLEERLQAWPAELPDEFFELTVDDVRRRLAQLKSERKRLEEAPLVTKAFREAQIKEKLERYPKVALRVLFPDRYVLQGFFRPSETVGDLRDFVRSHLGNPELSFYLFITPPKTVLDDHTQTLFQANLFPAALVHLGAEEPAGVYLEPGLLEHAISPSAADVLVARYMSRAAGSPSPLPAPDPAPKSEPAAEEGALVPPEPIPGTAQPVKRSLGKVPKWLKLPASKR
Briefly: pull-down; pure GST-ASPL immobilised on glutathione-Sepharose 4B beads, incubated with GLUT4 yeast lysate 1 h at 4 °C, washed with PBS, eluted with 30 mM reduced glutathione; western blot with GST and GLUT4 antibodies; beads alone as control; only the target purified.

Assay [4] concerns the target His-tagged thioredoxin (Trx) [thioredoxin: P0AA25]. As to the kind of experiment: pull-down; 10 μg Trx-ICH_(GLUT4) or Trx immobilised on Ni-NTA agarose, incubated with ASPL-C overnight at 4 °C, washed with PBS, eluted with 300 mM imidazole; western blot with anti-His and anti-ASPL antibodies; both purified. A general note: A western blot detects proteins with antibodies after separation by electrophoresis.

Assay [5] deals with T3, Thioredoxin fused C-terminally with human GLUT4 intracellular helical bundle (residues 225-271, I232C/K264C) (human) (UniProt P14672).
T3 sequence: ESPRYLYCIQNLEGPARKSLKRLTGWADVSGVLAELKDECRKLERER
Described as above.

Assay [6] addresses T4, Alveolar Soft Part Sarcoma Locus protein (ASPL; human, endogenous in primary adipocytes) (human (endogenous in primary adipocytes)) (UniProt Q9BZE9).
T4 sequence: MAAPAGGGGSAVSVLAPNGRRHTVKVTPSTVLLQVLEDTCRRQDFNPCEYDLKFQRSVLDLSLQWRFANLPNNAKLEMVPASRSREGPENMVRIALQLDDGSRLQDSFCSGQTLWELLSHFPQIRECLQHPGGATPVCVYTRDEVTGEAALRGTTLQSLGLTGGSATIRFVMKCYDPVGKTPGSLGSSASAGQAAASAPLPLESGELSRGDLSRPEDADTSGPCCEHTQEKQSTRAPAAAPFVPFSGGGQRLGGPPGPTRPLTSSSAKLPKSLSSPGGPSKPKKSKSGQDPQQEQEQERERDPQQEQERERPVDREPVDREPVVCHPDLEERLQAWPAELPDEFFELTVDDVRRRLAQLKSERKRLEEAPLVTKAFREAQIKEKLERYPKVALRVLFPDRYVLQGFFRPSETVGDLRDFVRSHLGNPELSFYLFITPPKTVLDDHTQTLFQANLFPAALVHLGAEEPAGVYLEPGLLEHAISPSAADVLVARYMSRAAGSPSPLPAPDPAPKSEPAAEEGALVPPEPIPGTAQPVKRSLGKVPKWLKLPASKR
As to the kind of experiment: proximity ligation; in situ PLA (Duolink) on fixed, permeabilised human primary adipocytes; primary antibodies against GLUT4 (rabbit) and ASPL (mouse); confocal microscopy.

Turning to ESPRYLYCIQNLEGPARKSLKRLTGWADVSGVLAELKDECRKLERER (domain or fragment, UniProt P14672 225-271), the binding result in assay [1] is “binds”.

B1: Rat GLUT4 with N-terminal poly-histidine tag (protein, UniProt P19357 1-509)
chain: MPSGFQQIGSEDGEPPQQRVTGTLVLAVFSAVLGSLQFGYNIGVINAPQKVIEQSYNATWLGRQGPGGPDSIPQGTLTTLWALSVAIFSVGGMISSFLIGIISQWLGRKRAMLANNVLAVLGGALMGLANAAASYEILILGRFLIGAYSGLTSGLVPMYVGEIAPTHLRGALGTLNQLAIVIGILVAQVLGLESMLGTATLWPLLLAITVLPALLQLLLLPFCPESPRYLYIIRNLEGPARKSLKRLTGWADVSDALAELKDEKRKLERERPLSLLQLLGSRTHRQPLIIAVVLQLSQQLSGINAVFYYSTSIFELAGVEQPAYATIGAGVVNTVFTLVSVLLVERAGRRTLHLLGLAGMCGCAILMTVALLLLERVPSMSYVSIVAIFGFVAFFEIGPGPIPWFIVAELFSQGPRPAAMAVAGFSNWTCNFIVGMGFQYVADAMGPYVFLLFAVLLLGFFIFTFLRVPETRGRTFDQISATFRRTPSLLEQEVKPSTELEYLGPDEND
B1: the binding entry in assay [2] and in assay [3] was “binds” each time.

B2: C-terminal domain of ASPL (ASPL-C, residues 313-553) (domain or fragment, UniProt Q9BZE9 313-553)
chain: VDREPVDREPVVCHPDLEERLQAWPAELPDEFFELTVDDVRRRLAQLKSERKRLEEAPLVTKAFREAQIKEKLERYPKVALRVLFPDRYVLQGFFRPSETVGDLRDFVRSHLGNPELSFYLFITPPKTVLDDHTQTLFQANLFPAALVHLGAEEPAGVYLEPGLLEHAISPSAADVLVARYMSRAAGSPSPLPAPDPAPKSEPAAEEGALVPPEPIPGTAQPVKRSLGKVPKWLKLPASKR
For the molecule B2, the binding result is on record as “no binding” in assay [4] and “binds” in assay [5].

B3: Glucose transporter GLUT4 (human, endogenous in primary adipocytes) (protein, UniProt P14672 1-509)
chain: MPSGFQQIGSEDGEPPQQRVTGTLVLAVFSAVLGSLQFGYNIGVINAPQKVIEQSYNETWLGRQGPEGPSSIPPGTLTTLWALSVAIFSVGGMISSFLIGIISQWLGRKRAMLVNNVLAVLGGSLMGLANAAASYEMLILGRFLIGAYSGLTSGLVPMYVGEIAPTHLRGALGTLNQLAIVIGILIAQVLGLESLLGTASLWPLLLGLTVLPALLQLVLLPFCPESPRYLYIIQNLEGPARKSLKRLTGWADVSGVLAELKDEKRKLERERPLSLLQLLGSRTHRQPLIIAVVLQLSQQLSGINAVFYYSTSIFETAGVGQPAYATIGAGVVNTVFTLVSVLLVERAGRRTLHLLGLAGMCGCAILMTVALLLLERVPAMSYVSIVAIFGFVAFFEIGPGPIPWFIVAELFSQGPRPAAMAVAGFSNWTSNFIIGMGFQYVAEAMGPYVFLLFAVLLLGFFIFTFLRVPETRGRTFDQISAAFHRTPSLLEQEVKPSTELEYLGPDEND
Regarding B3, the binding entry in assay [6] is on record as “binds”.
